Test results published in publication PMC4336329 (PLoS ONE, 2015).
The whole screen tested about 310,000 compounds, of which about 14,000 (4.5%) showed an effect of 50% or more. Effects have a minus sign here. The list shows a part of the results.

Molecular target: human ether-à-go-go-related gene (hERG) potassium channel (human, UniProt Q12809)
Assay: primary screen, population patch clamp on CHO cells stably expressing hERG
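Further: peak tail current of the secondary pulse compared with the same well before compound.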

human ether-à-go-go-related gene (hERG) potassium channel, sequence (Q12809 whole entry, looked up): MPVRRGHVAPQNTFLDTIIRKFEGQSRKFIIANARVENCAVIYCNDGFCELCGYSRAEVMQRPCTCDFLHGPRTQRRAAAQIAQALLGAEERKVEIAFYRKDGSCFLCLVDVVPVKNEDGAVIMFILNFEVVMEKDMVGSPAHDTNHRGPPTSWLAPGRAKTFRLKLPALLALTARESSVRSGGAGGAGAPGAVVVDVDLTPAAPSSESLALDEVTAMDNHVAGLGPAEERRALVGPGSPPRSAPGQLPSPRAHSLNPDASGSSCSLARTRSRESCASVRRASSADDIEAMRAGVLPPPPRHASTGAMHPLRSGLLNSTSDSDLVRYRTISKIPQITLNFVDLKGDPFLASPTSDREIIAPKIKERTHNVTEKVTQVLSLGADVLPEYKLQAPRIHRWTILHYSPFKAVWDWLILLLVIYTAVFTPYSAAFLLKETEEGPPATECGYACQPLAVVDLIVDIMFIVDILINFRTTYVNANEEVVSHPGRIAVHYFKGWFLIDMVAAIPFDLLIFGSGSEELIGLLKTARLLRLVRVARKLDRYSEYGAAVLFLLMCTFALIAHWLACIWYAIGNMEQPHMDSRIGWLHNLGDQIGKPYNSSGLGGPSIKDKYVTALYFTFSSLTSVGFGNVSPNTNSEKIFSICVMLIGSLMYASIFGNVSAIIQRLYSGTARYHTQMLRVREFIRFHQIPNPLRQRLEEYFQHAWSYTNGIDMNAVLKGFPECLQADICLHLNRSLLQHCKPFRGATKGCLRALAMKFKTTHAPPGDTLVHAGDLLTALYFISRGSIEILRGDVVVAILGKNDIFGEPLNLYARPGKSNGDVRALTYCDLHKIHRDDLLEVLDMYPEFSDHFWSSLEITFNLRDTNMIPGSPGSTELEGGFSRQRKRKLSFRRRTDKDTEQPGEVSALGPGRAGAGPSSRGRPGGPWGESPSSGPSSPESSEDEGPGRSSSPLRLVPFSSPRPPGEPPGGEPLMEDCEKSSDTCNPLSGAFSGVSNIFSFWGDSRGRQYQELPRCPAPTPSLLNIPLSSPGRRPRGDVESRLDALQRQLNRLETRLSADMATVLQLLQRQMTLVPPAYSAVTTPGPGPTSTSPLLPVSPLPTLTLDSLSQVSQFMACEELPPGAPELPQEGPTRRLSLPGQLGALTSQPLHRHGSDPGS

Row | SMILES | hERG current change (%, negative = inhibition) at 10uM
1 | C(=C\c1ccccc1)/CSc1ccccn1 | 4.22%
2 | C=CCOc1ccc(NC(=O)C(=O)NCCCn2ccnc2)cc1 | -16%
3 | CC1(C)C(=O)Nc2ccccc2N1C(=O)COc1cccnc1[N+](=O)[O-] | 2.46%
4 | CCOC(=O)C1CCN(Cc2cn[nH]c2-c2ccccc2)CC1.O=C(O)C(=O)O | -9.8%
5 | Cc1cccc(Cn2c(SCCN3CCOCC3)nc3c2c(=O)n(C)c(=O)n3C)c1 | -26.2%
6 | Cc1ccccc1NC(=S)N(Cc1ccccn1)Cc1ccccc1Cl | -15.6%
7 | CCc1ccc(C(=O)COC(=O)c2n[nH]c3ccccc23)cc1 | 6.65%
8 | O=c1[nH]c(SCc2c(Cl)cccc2Cl)nc2ccccc12 | -6.38%
9 | Cc1cc(C(=O)N2CCCC(N3CCN(c4ccc(F)cc4)CC3)C2)c(C)o1 (centres unmarked) | -59.1%
10 | O=C(O)/C=C/C(=O)Nc1ccc(Cc2ccc(NC(=O)/C=C/C(=O)O)cc2)cc1 | 19.6%
11 | O=c1[nH]c(=S)n(CCC2=CCCCC2)c(O)c1/C=N/N1CCOCC1 | -41.8%
12 | CC(C)NC(=O)N(Cc1ccc(Cl)cc1)Cc1cccs1 | -10.4%
13 | CNC(=O)c1ccc(N(Cc2ccccc2C)S(C)(=O)=O)cc1 | -6%
14 | O=C(NNC(=S)NCc1ccccc1)c1ccc2c(c1)OCO2 | 8.77%
15 | O=C(CN1CCN(S(=O)(=O)c2ccc(Cl)c(Cl)c2)CC1)N1CCCCC1 | -53.5%
16 | CC1CCCC(NC(=O)CCC(=O)N2CCOc3ccccc32)C1C (centres unmarked) | -1.16%
17 | CN(Cc1ccon1)C(=O)CCc1nnc(CCCCc2ccccc2)o1 | 0.885%
18 | Cc1cc(C)c(S(=O)(=O)N2CCCc3ccccc32)c(C)c1 | 6.75%
19 | CCc1cc2c(s1)NC(=O)CN=C2c1cccs1 | -26.4%
20 | Brc1ccc2ncnc(Nc3cccc4ccccc34)c2c1 | -0.625%
21 | S=c1[nH]nc(Cc2cccc3ccccc23)n1-c1ccccc1 | 1.39%
22 | CCn1c(SCC(=O)N2CCCC2=O)nnc1-c1cccs1 | 16.4%

Row | SMILES | hERG current change (%, negative = inhibition) at 10uM
23 | Fc1cccc2sc(Nc3nc4cc5c(cc4s3)OCCO5)nc12 | 20.4%
24 | Cc1ccc(C(C(=O)NC2CCCC2)N(Cc2cccs2)C(=O)c2csnn2)o1 (centres unmarked) | -15.9%
25 | N#Cc1c(-c2ccccc2)nc2n(-c3ccccc3)nc(C(=O)Nc3ccccc3)n2c1=O | 7.12%
26 | CCCCc1ccc(S(=O)(=O)N2CCN(C(=O)c3ccco3)CC2)cc1 | -66.5%
27 | Cn1c(SCC(=O)N2CCN(c3ccccc3)CC2)nnc1-c1ccco1 | -14.3%
28 | Cc1ccc(S(=O)(=O)N2CCC(C(=O)Nc3nnc(C)s3)CC2)cc1 | 13.9%
29 | C=CCNC(=O)c1onc(CSc2ccc(F)cc2)c1C(=O)O | -1.83%
30 | Cc1cccc(-c2ocnc2C(=O)Nc2ccccc2C(=O)N2CCCC2)c1 | -37%
31 | COc1ccc2nc(N(CCN(C)C)C(=O)/C=C/c3cccs3)sc2c1.Cl | -55.1%
32 | COc1ccc(/C=N\NC(=O)COc2ccccc2)c(C(=O)O)c1OC | 19.4%
33 | COc1ccc(C2C(C(=O)N3CCN(C)CC3)c3ccccc3C(=O)N2C2CCCCC2)cc1 (centres unmarked) | 5.26%
34 | COc1ccc([N+](=O)[O-])cc1N(CC(O)CN1C(=O)NC(C)(C)C1=O)S(=O)(=O)c1ccccc1 (centres unmarked) | 10.7%
35 | Cc1cc(SCC(=O)NCC(c2cccs2)N2CCOCC2)c(C)cc1Br (centres unmarked) | -16.6%
36 | COc1ccccc1CNC(=O)C1CCN(S(=O)(=O)c2ccc3c(c2)OCCCO3)CC1 | -12.5%
37 | O=C(Nc1ccc2c(c1)OCO2)c1noc2c1CCCC2 | 4.55%
38 | O=C(Nc1cc(Cl)cc(Cl)c1)C(NCCO)c1ccccc1 (centres unmarked) | 11.9%
39 | Cc1ccc(F)cc1NC(=O)CCOc1ccccc1 | 0.177%
40 | COc1cc(NC(=O)CCn2c(=O)[nH]c3ccsc3c2=O)cc(OC)c1 | -5.44%
41 | Cc1ccc(NC(=O)C2CCC(CNC(=O)[C@@H]3Cc4ccccc4CN3)CC2)c(C)c1 (some centres unmarked) | 6.43%
42 | OCCC1CN(Cc2c(F)cccc2Cl)CCN1C1CCCCC1 (centres unmarked) | -5.6%
43 | Cc1ccc(O)c(NC(=O)c2cc(-c3ccc(F)cc3)on2)c1 | 6.44%
44 | OC(COCc1ccco1)CN1CCN(C(c2ccccc2)c2ccccc2)CC1 (centres unmarked) | -73.4%
